Data: the supplement of paper PMC4967469

What was measured:
Assay in all cases: Viability of human cancer cell lines after 72 h of drug (GDSC screen)
[1] = compound: NC(=O)Nc1cc(-c2cccc(F)c2)sc1C(=O)N[C@H]1CCCNC1 [AZD7762]; conditions: top dose 2 µM
Protocol: (§1)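 Human cancer cell lines in 384-well plates, medium with 10% serum, drug for 72 h over a 256-fold dose range (nine 2-fold or five 4-fold steps up to the top dose). Adherent lines were fixed and stained with the nucleic acid dye Syto60, suspension lines read with resazurin; signal relative to control wells, capped at 0 and 100%. One two-parameter sigmoid per drug and line, fitted in a mixed model over all curves with the slope shared within a line.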

[2] = compound: Oc1nc(-c2ccc(C(F)(F)F)cc2)nc2c1CSCC2 [XAV 939]; conditions: top dose 5 µM; top dose inferred
Protocol: as §1

[3] = compound: COc1cc(C(=O)NC2CCN(C)CC2)ccc1Nc1ncc2c(n1)N(C1CCCC1)C(C)CC(=O)N2C [NPK76-II-72-1]; conditions: top dose 10.24 µM; top dose inferred
Protocol: as §1

[4] = compound: Cc1ccc2nc(NCCN)c3ncc(C)n3c2c1 [BMS-345541]; conditions: top dose 16 µM
Protocol: as §1

[5] = compound: C=C(c1ccc(C(=O)O)cc1)c1cc2c(cc1C)C(C)(C)CCC2(C)C [Bexarotene]; conditions: top dose 8 µM
Protocol: as §1

[6] = compound: O=C(O)c1ccc(-c2c[nH]c3ncc(-c4ccccc4)cc23)cc1C1CCCC1 [GSK-650394]; conditions: top dose 16 µM; top dose inferred
Protocol: as §1

Cell Line	AUC [1]	IC50 [1] [µM]	AUC [2]	IC50 [2] [µM]	AUC [3]	IC50 [3] [µM]	AUC [4]	IC50 [4] [µM]	AUC [5]	IC50 [5] [µM]	AUC [6]	IC50 [6] [µM]
A549 (lung adenocarcinoma, adherent)	0.642	0.326	0.888	> 5	–	–	–	–	–	–	–	–
CHP-134 (neuroblastoma, suspension)	–	–	–	–	0.658	2	0.908	> 16	–	–	–	–
COLO-829 (melanoma, adherent)	–	–	0.879	> 5	0.921	> 10.2	0.953	> 16	0.871	> 8	0.979	> 16
COR-L303 (small cell lung carcinoma, suspension)	–	–	–	–	0.687	2.1	0.894	> 16	–	–	–	–
COR-L311 (small cell lung carcinoma, suspension)	–	–	–	–	0.809	5.8	0.708	4.04	–	–	–	–
D-423MG (glioma, adherent)	0.645	0.346	0.96	> 5	0.828	8.26	0.828	13	–	–	–	–
D-566MG (glioma, adherent)	0.554	0.175	0.89	> 5	0.943	> 10.2	0.907	> 16	–	–	–	–
DOHH-2 (B-cell lymphoma, suspension)	0.54	0.161	–	–	–	–	–	–	0.973	> 8	0.888	> 16
DOV13 (ovary, adherent)	0.589	0.227	0.905	> 5	0.943	> 10.2	0.92	> 16	–	–	–	–
FLO-1 (oesophagus, adherent)	0.588	0.243	0.941	> 5	0.879	> 10.2	0.838	> 16	–	–	–	–
H2810 (mesothelioma, adherent)	–	–	0.976	> 5	–	–	–	–	–	–	–	–
HCT-116 (large intestine, adherent)	0.847	1.36	0.985	> 5	0.772	3.75	0.878	14.8	–	–	0.908	> 16
Hey (ovary, adherent)	0.557	0.177	0.9	> 5	0.946	> 10.2	0.885	15.8	–	–	–	–
JHOS-2 (ovary, adherent)	0.74	0.689	0.784	2.51	0.889	> 10.2	0.916	> 16	–	–	–	–

IC50 is the fitted dose that halves viability relative to control wells, and lower means more sensitive; a fit beyond the top or the lowest dose is shown as a bound at that dose. AUC sums up the same curve from the lowest dose to the 256-fold higher top dose; values near 1 show little effect. For some assays here: The top dose, if marked as inferred, is not printed in the source and was worked back from the curve model.
